Test [1] deals with human 2-5A-dependent RNase. The following applies: purified enzyme, poly(rU) substrate.
Test [2] relates to poly(C). Kind of test: Ribonuclease assay with 2-5A-cellulose. Format: biochemical. The following applies: after one hour of incubation; enzyme bound to 2-5A-cellulose. On the procedure: (§1) FIG. 5B is reticulocyte lysate pretreated to remove endogeous 2-5A-dependent RNase and is incubated in the absence of added mRNA (.box-solid.), in the presence of human 2-5A-dependent RNase mRNA without inhibitor (.circle-solid., .box-solid.) or in the presence of both 2-5A-dependent RNase mRNA and cycloheximide (50 μg per ml (.circle-solid.). See Example. Subsequently, the recombinant 2-5A-dependent RNase (or controls) is adsorbed to 2-5A-cellulose and ribonuclease assays are performed after extensive washing of the matrix to reduce general nuclease activity. Radiolabeled substrate RNA was either poly(U) (.smallcircle., .circle-solid., .box-solid.) or poly(C) (.box-solid.).
(§2) Briefly, lysates are adsorbed to about 30 μM of 2-5A-cellulose on ice for about two hours. […] The matrix is then incubated with poly(U)-[^32 P]Cp or poly(C)-[^32 P]Cp (both at about 16 μM in nucleotide equivalents) at about 30° C. and the levels of acid-precipitable radioactive RNA are determined by filtration on glass-fiber filters.

The test system of test [3] is poly(U). Kind of test: Ribonuclease assay with 2-5A-cellulose. Format: biochemical. The following applies: enzyme from reticulocyte lysate bound to 2-5A-cellulose, 30° C. On the procedure:
as §1, §2

For the molecule pppA(3'p5'A)2, the “concentration at which no activation of 2-5A-dependent RNase was seen” value in test [1] is over 1 µM. Turning to p3 A2'pA, the “activation of 2-5A-dependent RNase (in words)” value in test [1] (listed as pppA2'p5'A) is “failed to activate”.

B1: recombinant human 2-5A-dependent RNase: full-length human 2-5A-dependent RNase (SEQ ID NO: 2, clone ZC5) produced in vitro (protein)
chain: MESRDHNNPQEGPTSSSGRRAAVEDNHLLIKAVQNEDVDLVQQLLEGGANVNFQEEEGGWTPLHNAVQMSREDIVELLLRHGADPVLRKKNGATLFILAAIAGSVKLLKLFLSKGADVNECDFYGFTAFMEAAVYGKVKALKFLYKRGANVNLRRKTKEDQERLRKGGATALMDAAEKGHVEVLKILLDEMGADVNACDNMGRNALIHALLSSDDSDVEAITHLLLDHGADVNVRGERGKTPLILAVEKKHLGLVQRLLEQEHIEINDTDSDGKTALLLAVELKLKKIAELLCKRGASTDCGDLVMTARRNYDHSLVKVLLSHGAKEDFHPPAEDWKPQSSHWGAALKDLHRIYRPMIGKLKFFIDEKYKIADTSEGGIYLGFYEKQEVAVKTFCEGSPRAQREVSCLQSSRENSHLVTFYGSESHRGHLFVCVTLCEQTLEACLDVHRGEDVENEEDEFARNVLSSIFKAVQELHLSCGYTHQDLQPQNILIDSKKAAHLADFDKSIKWAGDPQEVKRDLEDLGRLVLYVVKKGSISFEDLKAQSNEEVVQLSPDEETKDLIHRLFHPGEHVRDCLSDLLGHPFFWTWESRYRTLRNVGNESDIKTRKSESEILRLLQPGPSEHSKSFDKWTTKINECVMKKMNKFYEKRGNFYQNTVGDLLKFIRNLGEHIDEEKHKKMKLKIGDPSLYFQKTFPDLVIYVYTKLQNTEYRKHFPQTHSPNKPQCDGAGGASGLASPGC
Turning to B1, the “poly(C) degraded” value in test [2] was found to be 20%. The “half-life of poly(U) degradation” value in test [3] is listed as “about 10 minutes”.
